Measurements as given in patent US8076286B2, “Antimicrobial peptides and use thereof” (priority 2006, dated 2011).
Values joined by “and” are separate entries in the source; they are usually repeats but may differ in a detail not shown here. Equal entries are not always repeated. At least one peptide structure holds a part that was inferred or is arguable (an end, a ring closure or a residue). Ends that are not written are not given here. Peptide text beside a SMILES is read from it.

Key:
S.aureus ATCC 29213 = test: Radial diffusion assay (RDA), S. aureus; format: cell-based, Staphylococcus aureus; details: zone of bacterial clearance in RDA; unit mm only in FIG. 1 legend, not in Table 2A
Procedure: (§1) Escherichia coli ATCC25922, Pseudomonas aeruginosa ATCC27853, Staphylococcus aureus ATCC29213, Bacillus subtilis ATCC6633 bacterial isolates, and the fungal isolate Candida albicans ATCC90028, were obtained from the Department of Bacteriology, Lund University Hospital.
(§2) Radial diffusion assays (RDA) were performed essentially as described earlier (Lehrer, R. I., Rosenman, M., Harwig, S. S., Jackson, R. & Eisenhauer, P. (1991) Ultrasensitive assays for endogenous antimicrobial polypeptides, J Immunol Methods. 137, 167-73.).
(§3) Briefly, bacteria (E. coli, P. aeruginosa, S. aureus, B. subtilis) or fungi (C. albicans) were grown to mid-logarithmic phase in 10 ml of full-strength (3% w/v) trypticase soy broth (TSB) (Becton-Dickinson, Cockeysville, Md.). The microorganisms were washed once with 10 mM Tris, pH 7.4. 4×10^6 bacterial cfu or 1×10^5 fungal cfu was added to 5 ml of the underlay agarose gel, consisting of 0.03% (w/v) TSB, 1% (w/v) low-electroendoosmosistype (Low-EEO) agarose (Sigma, St Louise Mo.) and a final concentration of 0.02% (v/v) Tween 20 (Sigma). The underlay was poured into a Ø85 mm petri dish. After agarose solidified, 4 mm-diameter wells were punched and 6 μl of test sample was added to each well. Plates were incubated at 37° C. for 3 hours to allow diffusion of the peptides. The underlay gel was then covered with 5 ml of molten overlay (6% TSB and 1% Low-EEO agarose in dH2O). Antimicrobial activity of a peptide is visualized as a clear zone around each well after 18-24 hours of incubation at 37° C. for bacteria and 28° C. for Candida albicans.

E.coli ATCC 25922 = test: Radial diffusion assay (RDA), E. coli; format: cell-based, Escherichia coli; details: zone of bacterial clearance in RDA; unit mm only in FIG. 1 legend, not in Table 2A
Procedure: as §1, §2, §3

| Compound | Bacteria S.aureus ATCC 29213 Mean (S.aureus ATCC 29213) | Bacteria E.coli ATCC 25922 Mean (E.coli ATCC 25922) |
| --- | --- | --- |
| CC(C)C[C@H](NC(=O)[C@H](Cc1c[nH]c2ccccc12)NC(=O)[C@H](CCCCN)NC(=O)[C@H](CCCCN)NC(=O)[C@H](CC(C)C)NC(=O)[C@H](CCCNC(=N)N)NC(=O)[C@H](Cc1ccccc1)NC(=O)[C@@H](N)C(C)C)C(=O)N[C@@H](CCCNC(=N)N)C(=O)N[C@@H](CCCCN)C(=O)N[C@H](C(=O)N[C@H](C(=O)N[C@@H](CC(=O)O)C(=O)N[C@@H](CCC(N)=O)C(=O)N[C@@H](Cc1ccccc1)C(=O)NCC(=O)N[C@@H](CCC(=O)O)C(=O)O)[C@@H](C)O)C(C)C [SEQ ID NO:37, VFRIKKWLRKVTDQFGE] | 5.29 mm | 7.05 mm |
| LFRLKKWLRKVTKQFGE [SEQ ID NO:24, LFRLKKWLRKVTKQFGE] | 5.87 mm | 7.97 mm |
| LFRLKKWIRKVTDQFGR [SEQ ID NO:18, LFRLKKWIRKVTDQFGR] | 5.64 mm | 8.18 mm |
| LFRLKKWLKKVTKQFGE [SEQ ID NO:29, LFRLKKWLKKVTKQFGE] | 5.55 mm | 7.59 mm |
| CC[C@H](C)[C@H](NC(=O)[C@H](Cc1c[nH]c2ccccc12)NC(=O)[C@H](CCCCN)NC(=O)[C@H](CCCCN)NC(=O)[C@H](CC(C)C)NC(=O)[C@H](CCCNC(=N)N)NC(=O)[C@H](Cc1ccccc1)NC(=O)[C@@H](N)C(C)C)C(=O)N[C@@H](CCC(N)=O)C(=O)N[C@@H](CCCCN)C(=O)N[C@H](C(=O)N[C@H](C(=O)N[C@@H](CC(=O)O)C(=O)N[C@@H](CCC(N)=O)C(=O)N[C@@H](Cc1ccccc1)C(=O)NCC(=O)N[C@@H](CCC(=O)O)C(=O)O)[C@@H](C)CC)C(C)C [SEQ ID NO:38, VFRLKKWIQKVIDQFGE] (H-VFRLKKWIQKVIDQFGE-OH) | 6.80 mm and 4.94 mm | 8.37 mm and 6.92 mm |
| SHVFRLKKWIQKVIDQFGE [SEQ ID NO:5, SHVFRLKKWIQKVIDQFGE] | 5.85 mm | 10.68 mm |
| CC[C@H](C)[C@H](NC(=O)[C@H](Cc1c[nH]c2ccccc12)NC(=O)[C@H](CCCCN)NC(=O)[C@H](CCCCN)NC(=O)[C@H](CC(C)C)NC(=O)[C@H](CCCNC(=N)N)NC(=O)[C@H](CCCCN)NC(=O)[C@@H](N)C(C)C)C(=O)N[C@@H](CCCCN)C(=O)N[C@@H](CCCCN)C(=O)N[C@H](C(=O)N[C@H](C(=O)N[C@@H](CCCCN)C(=O)N[C@@H](CC(C)C)C(=O)N[C@@H](Cc1ccccc1)C(=O)NCC(=O)N[C@@H](CCCCN)C(=O)O)[C@@H](C)CC)C(C)C [SEQ ID NO:44, VKRIKKWIKKVIKLFGK] | 7.21 mm | 10.46 mm |
| LFRLKKWLRKVTKQFG [SEQ ID NO:10, LFRLKKWLRKVTKQFG] | 6.28 mm | 11.00 mm |
| CC[C@H](C)[C@H](NC(=O)[C@H](Cc1c[nH]c2ccccc12)NC(=O)[C@H](CCCCN)NC(=O)[C@H](CCCCN)NC(=O)[C@H](CC(C)C)NC(=O)[C@H](CCCNC(=N)N)NC(=O)[C@H](Cc1ccccc1)NC(=O)[C@@H](N)CC(C)C)C(=O)N[C@@H](CCCCN)C(=O)N[C@@H](CCCCN)C(=O)N[C@H](C(=O)N[C@H](C(=O)N[C@@H](CCCCN)C(=O)N[C@@H](CCC(N)=O)C(=O)N[C@@H](Cc1ccccc1)C(=O)NCC(=O)N[C@@H](CCC(=O)O)C(=O)O)[C@@H](C)O)C(C)C [SEQ ID NO:28, LFRIKKWIKKVTKQFGE] | 5.47 mm | 7.43 mm |
| LFRLKKWIRKVTRQFGE [SEQ ID NO:l6, LFRlKKWIRKVTRQFGE] | 5.70 mm | 9.44 mm |
| LFRLKKWIQKVTRQFGE [SEQ ID NO:31, LFRLKKWIQKVTRQFGE] | 6.52 mm | 7.70 mm |
| VRRLKKWIQKVIRLFGR [SEQ ID NO:46, VRRLKKWIQKVIRLFGR] | 6.48 mm | 9.88 mm |
| LTRLKKWIRKVTKQFGE [SEQ ID NO:11, LTRLKKWIRKVTKQFGE] | 5.31 mm | 8.64 mm |
| LFRLKKWLRKVTDQFGR [SEQ ID NO:17, LFRLKKWLRKVTDQFGR] | 3.19 mm | 6.81 mm |
| LFRLKKWLRKVTDQFGE [SEQ ID NO:33, LFRLKKWLRKVTDQFGE] | 4.90 mm | 6.02 mm |
| VFRLKKWIQKVIDQFG [SEQ ID NO:7, VFRLKKWIQKVIDQFG] | 8.30 mm | 11.14 mm |
| CC[C@H](C)[C@H](NC(=O)[C@H](CCCNC(=N)N)NC(=O)[C@@H](NC(=O)[C@@H](NC(=O)[C@H](CCCCN)NC(=O)[C@H](CCC(N)=O)NC(=O)[C@@H](NC(=O)[C@H](Cc1c[nH]c2ccccc12)NC(=O)[C@H](CCCCN)NC(=O)[C@H](CCCCN)NC(=O)[C@H](CC(C)C)NC(=O)[C@H](CCCNC(=N)N)NC(=O)[C@H](CCCNC(=N)N)NC(=O)[C@@H](N)C(C)C)[C@@H](C)CC)C(C)C)[C@@H](C)CC)C(=O)N[C@@H](Cc1ccccc1)C(=O)NCC(=O)N[C@@H](CCCNC(=N)N)C(=O)O [SEQ ID NO:48, VRRIKKWIQKVIRIFGR] | 5.06 mm | 9.86 mm |
| LTRLKKWLRKVTDQFGE [SEQ ID NO:12, LTRLKKWLRKVTDQFGE] | 3.45 mm | 6.04 mm |
| VRRLKKWIQKVIRQFGR [SEQ ID NO:45, VRRLKKWIQKVIRQFGR] | 7.25 mm | 9.48 mm |

| Compound | Bacteria S.aureus ATCC 29213 Mean (S.aureus ATCC 29213) | Bacteria E.coli ATCC 25922 Mean (E.coli ATCC 25922) |
| --- | --- | --- |
| LFRLKKWLQKVTRQFGE [SEQ ID NO:30, LFRLKKWLQKVTRQFGE] | 6.71 mm | 8.24 mm |
| LFRLKKWIRKVTRQFGR [SEQ ID NO:13, LFRLKKWIRKVTRQFGR] | 5.49 mm | 9.03 mm |
| LFRLKKWIKKVTRQFGE [SEQ ID NO:25, LFRLKKWIKKVTRQFGE] | 5.01 mm | 7.82 mm |
| VKRLKKWIKKVIKIFGK [SEQ ID NO:47, VKRLKKWIKKVIKIFGK] | 5.21 mm | 9.03 mm |
| VFRLKKWIRKVTRQFG [SEQ ID NO:8, VFRLKKWIRKVTRQFG] | 6.78 mm | 11.06 mm |
| VFRLKKWIRKVTRQFGE [SEQ ID NO:21, VFRLKKWIRKVTRQFGE] | 6.24 mm | 9.22 mm |
| VKRLKKWIQKVIKQFGK [SEQ ID NO:42, VKRLKKWIQKVIKQFGK] | 5.92 mm | 9.47 mm |
| LFRLKKWIRKVTKQFGE [SEQ ID NO:22, LFRLKKWIRKVTKQFGE] | 7.28 mm | 7.76 mm |
| NHVFRLKKWIQKVIDQFGE [SEQ ID NO:4, NHVFRLKKWIQKVIDQFGE] | 4.89 mm | 6.79 mm |
| LFRLKKWLRKVTKLFGE [SEQ ID NO:35, LFRLKKWLRKVTKLFGE] | 6.69 mm | 8.42 mm |
| LFRLKKWIRKVTRLFGE [SEQ ID NO:32, LFRLKKWIRKVTRLFGE] | 6.28 mm | 8.42 mm |
| LFRLKKWLRKVIKQFGE [SEQ ID NO:20, LFRLKKWLRKVIKQFGE] | 7.83 mm | 9.11 mm |
| LFRLKKWLKKVTDQFGE [SEQ ID NO:36, LFRLKKWLKKVTDQFGE] | 5.80 mm | 6.04 mm |
| VFRLKKWLRKVTRQFGE [SEQ ID NO:23, VFRLKKWLRKVTRQFGE] | 7.73 mm | 8.80 mm |
| LFRLKKWIRKVIRQFGE [SEQ ID NO:15, LFRLKKWIRKVIRQFGE] | 6.99 mm | 8.82 mm |
| THVFRLKKWIKKVIKQFGE [SEQ ID NO:6, THVFRLKKWIKKVIKQFGE] | 8.16 mm | 11.27 mm |
| CC(C)C[C@H](NC(=O)[C@H](Cc1c[nH]c2ccccc12)NC(=O)[C@H](CCCCN)NC(=O)[C@H](CCCCN)NC(=O)[C@H](CC(C)C)NC(=O)[C@H](CCCNC(=N)N)NC(=O)[C@H](Cc1ccccc1)NC(=O)[C@@H](N)C(C)C)C(=O)N[C@@H](CCCNC(=N)N)C(=O)N[C@@H](CCCCN)C(=O)N[C@H](C(=O)N[C@H](C(=O)N[C@@H](CCCCN)C(=O)N[C@@H](CCC(N)=O)C(=O)N[C@@H](Cc1ccccc1)C(=O)NCC(=O)N[C@@H](CCC(=O)O)C(=O)O)[C@@H](C)O)C(C)C [SEQ ID NO:27, VFRIKKWLRKVTKQFGE] | 6.45 mm | 8.81 mm |
| VFRLKKWIQKVIKQFGE [SEQ ID NQ:40, VFRLKKWIQKVIKQFGE] | 7.25 mm | 9.56 mm |
